What all share (assay): protein-binding microarray (PBM)
Common to all, as to details: PBM: ~300 nM protein, 6 mM HEPES pH 7.8, 80 mM KCl, 0.5 mM EDTA, 0.5 mM EGTA, 6% glycerol, 35 ng/ul poly-dIdC, 1% milk, 1 h, room temperature; Ap Aiptasia and Nv Nematostella (sea anemones) / Co Capsaspora / Aq Amphimedon (sponge) / Dm Drosophila / Hu human; RHD is the Rel homology domain; high values mean tight binding; most listed sequences are background and not binding sites; double strand, one strand shown

In test [1] the target is T1, GST-Nv-NF-kB (Cys allele) (UniProt E5G601).
T1 sequence: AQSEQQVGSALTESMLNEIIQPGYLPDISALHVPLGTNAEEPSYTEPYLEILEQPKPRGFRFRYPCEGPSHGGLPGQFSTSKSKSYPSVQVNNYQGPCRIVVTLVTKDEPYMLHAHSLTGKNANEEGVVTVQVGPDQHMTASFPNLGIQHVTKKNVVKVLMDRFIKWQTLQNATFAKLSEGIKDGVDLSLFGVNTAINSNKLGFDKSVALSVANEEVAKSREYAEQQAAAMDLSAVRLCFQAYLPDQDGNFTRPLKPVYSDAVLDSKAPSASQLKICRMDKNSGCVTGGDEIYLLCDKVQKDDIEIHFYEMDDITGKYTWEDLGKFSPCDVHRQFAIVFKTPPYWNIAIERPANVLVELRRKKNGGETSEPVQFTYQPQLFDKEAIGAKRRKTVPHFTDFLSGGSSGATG

The target of test [2] is T2, GST-Co-NF-kB (UniProt F1ARL5).
T2 sequence: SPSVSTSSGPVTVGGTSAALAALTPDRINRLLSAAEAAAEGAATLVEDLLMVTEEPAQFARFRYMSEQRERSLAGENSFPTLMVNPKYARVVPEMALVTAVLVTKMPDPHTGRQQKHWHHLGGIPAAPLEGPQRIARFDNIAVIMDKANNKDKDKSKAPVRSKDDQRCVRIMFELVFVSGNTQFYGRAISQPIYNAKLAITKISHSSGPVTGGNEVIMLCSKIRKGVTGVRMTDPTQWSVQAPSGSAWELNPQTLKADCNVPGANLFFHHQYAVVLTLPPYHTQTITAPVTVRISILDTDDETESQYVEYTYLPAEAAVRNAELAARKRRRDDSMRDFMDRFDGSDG

Test [3] deals with T3, GST-Dm-Relish (UniProt Q94527).
T3 sequence: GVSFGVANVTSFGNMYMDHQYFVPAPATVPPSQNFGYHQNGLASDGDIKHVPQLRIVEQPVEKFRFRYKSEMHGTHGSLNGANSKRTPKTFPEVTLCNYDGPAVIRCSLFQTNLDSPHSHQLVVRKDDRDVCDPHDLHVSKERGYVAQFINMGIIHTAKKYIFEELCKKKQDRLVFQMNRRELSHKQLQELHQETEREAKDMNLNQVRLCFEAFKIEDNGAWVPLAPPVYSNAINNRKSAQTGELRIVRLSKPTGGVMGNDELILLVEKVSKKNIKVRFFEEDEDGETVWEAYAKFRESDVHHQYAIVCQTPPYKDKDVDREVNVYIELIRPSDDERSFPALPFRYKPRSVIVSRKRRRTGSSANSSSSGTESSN

This passage reports binding signal results from paper PMC5700166.

Only a part is listed here, and it is no random draw. For part of these data: The list includes weakly bound sequences.

As for “CCGATTAACATCAGGGGGAATACTGATGTTAATCGGGTCTTGATTCGCTTGACGCTGCTG”, the values for the binding signal in test [1], in test [2] and in test [3] were 8.32 z-score, 9.18 z-score and 7.69 z-score, respectively.

“CCGATTAACATCACGGTGGGAAATGATGTTAATCGGGTCTTGATTCGCTTGACGCTGCTG”: the binding signal in test [1] was 2.39 z-score; in test [2], 2.77 z-score; in test [3], 0.971 z-score.

Regarding “CCGATTAACATCACGGGCTTCCCTGATGTTAATCGGGTCTTGATTCGCTTGACGCTGCTG”, the binding signal in test [1] was determined as 2 z-score; in test [2], 0.816 z-score; in test [3] it was 7.65 z-score.

In the case of “CCGATTAACATCAGGGAACCCCATGATGTTAATCGGGTCTTGATTCGCTTGACGCTGCTG”, the binding signal is 2.07 z-score in test [1] and 10.5 z-score in test [3].

“CCGATTAACATCAATATAGTCCCTGATGTTAATCGGGTCTTGATTCGCTTGACGCTGCTG”: the figures for the binding signal in test [1] and in test [3] were 4.77 z-score and 1.16 z-score, respectively.

As for “CCGATTAACATCAGGGGGTTCACTGATGTTAATCGGGTCTTGATTCGCTTGACGCTGCTG”, the binding signal in test [1] was 4.09 z-score; in test [3] it was 10.4 z-score.

“CCGATTAACATCAGGGGATTTACTGATGTTAATCGGGTCTTGATTCGCTTGACGCTGCTG”: the results for the binding signal in test [1] and in test [3] were 9.25 z-score and 10.5 z-score, respectively.

“CCGATTAACATCAGGGAATCCCATGATGTTAATCGGGTCTTGATTCGCTTGACGCTGCTG”: the values for the binding signal in test [1] and in test [3] were 4.92 z-score and 10.4 z-score, respectively.

As for “CCGATTAACATCACAGTACCCCCTGATGTTAATCGGGTCTTGATTCGCTTGACGCTGCTG”, the figures for the binding signal in test [1] and in test [3] were 2.85 z-score and 1.94 z-score, respectively.

On to “CCGATTAACATCACGTTTTCCCCTGATGTTAATCGGGTCTTGATTCGCTTGACGCTGCTG”, for which the values for the binding signal in test [1] and in test [3] were 7.87 z-score and 4.49 z-score, respectively.

With “CCGATTAACATCAATTCCCGTACTGATGTTAATCGGGTCTTGATTCGCTTGACGCTGCTG”, the values for the binding signal in test [1] and in test [3] were 2.92 z-score and 0.879 z-score, respectively.

As to “CCGATTAACATCACGGGGAACTCTGATGTTAATCGGGTCTTGATTCGCTTGACGCTGCTG”, the results for the binding signal in test [1] and in test [3] were 6.61 z-score and 7.12 z-score, respectively.

As to “CCGATTAACATCAGGGGGGAACCTGATGTTAATCGGGTCTTGATTCGCTTGACGCTGCTG”, the binding signal in test [1] and in test [3] was 5.48 z-score in each case.

In the case of “CCGATTAACATCAGGGGGGCGCATGATGTTAATCGGGTCTTGATTCGCTTGACGCTGCTG”, the binding signal in test [1] was determined as 3.14 z-score; in test [3], 4.09 z-score.

For the sequence “CCGATTAACATCAGAGTTTCCCATGATGTTAATCGGGTCTTGATTCGCTTGACGCTGCTG”, the binding signal in test [1] came out at 3.42 z-score; in test [3], 0.859 z-score.

On to “CCGATTAACATCAAGGGGGTTTATGATGTTAATCGGGTCTTGATTCGCTTGACGCTGCTG”, for which the figures for the binding signal in test [1] and in test [3] were 6.46 z-score and 8.75 z-score, respectively.

Take “CCGATTAACATCACTGGATTCCCTGATGTTAATCGGGTCTTGATTCGCTTGACGCTGCTG”: the binding signal in test [1] turned out to be 2.76 z-score; in test [3], 4.48 z-score.

In the case of “CCGATTAACATCAATCTTTTCCCTGATGTTAATCGGGTCTTGATTCGCTTGACGCTGCTG”, the binding signal in test [1] amounted to 4.39 z-score; in test [3], 0.957 z-score.

As to “CCGATTAACATCAGGGGGTATACTGATGTTAATCGGGTCTTGATTCGCTTGACGCTGCTG”, the binding signal was 3.11 z-score in test [1] and 6.38 z-score in test [3].

For the sequence “CCGATTAACATCAGGGGAAATGATGATGTTAATCGGGTCTTGATTCGCTTGACGCTGCTG”, the results for the binding signal in test [1] and in test [3] were 6.87 z-score and 2.27 z-score, respectively.

Turning to “CCGATTAACATCAAGGTACCCCCTGATGTTAATCGGGTCTTGATTCGCTTGACGCTGCTG”, the binding signal in test [1] turned out to be 2.82 z-score; in test [3] it was 2.84 z-score.

Consider “CCGATTAACATCATTTTGGGGACTGATGTTAATCGGGTCTTGATTCGCTTGACGCTGCTG”, for which the binding signal in test [1] was 3.66 z-score; in test [3], 1.4 z-score.

Regarding “CCGATTAACATCAGATTTTCCCATGATGTTAATCGGGTCTTGATTCGCTTGACGCTGCTG”, the binding signal was determined as 5.14 z-score in test [1] and 1.26 z-score in test [3].

On to “CCGATTAACATCAGGGGTTCCCATGATGTTAATCGGGTCTTGATTCGCTTGACGCTGCTG”, for which the results for the binding signal in test [1] and in test [3] were 2.36 z-score and 10 z-score, respectively.

On to “CCGATTAACATCAAGCAACCCCCTGATGTTAATCGGGTCTTGATTCGCTTGACGCTGCTG”, for which the binding signal in test [1] was 3.34 z-score; in test [3], 5.19 z-score.

For “CCGATTAACATCAAAATCCCAGGTGATGTTAATCGGGTCTTGATTCGCTTGACGCTGCTG”, the binding signal in test [1] was determined as 1.42 z-score; in test [3] it was 5.57 z-score.

Consider “CCGATTAACATCAGGGGACTTTATGATGTTAATCGGGTCTTGATTCGCTTGACGCTGCTG”, for which the binding signal amounted to 8.29 z-score in test [1] and 8.18 z-score in test [3].
